Laboratory results from article PMC4336329 (PLoS ONE, 2015).
The campaign covered roughly 310,000 compounds. About 2,200 (0.71%) showed an effect of 50% or more. Effects have a minus sign here. This is one part of the list.

biological target: human ether-à-go-go-related gene (hERG) potassium channel (human, UniProt Q12809); test: primary screen, population patch clamp on CHO cells stably expressing hERG
Sequence (Q12809 whole entry, looked up): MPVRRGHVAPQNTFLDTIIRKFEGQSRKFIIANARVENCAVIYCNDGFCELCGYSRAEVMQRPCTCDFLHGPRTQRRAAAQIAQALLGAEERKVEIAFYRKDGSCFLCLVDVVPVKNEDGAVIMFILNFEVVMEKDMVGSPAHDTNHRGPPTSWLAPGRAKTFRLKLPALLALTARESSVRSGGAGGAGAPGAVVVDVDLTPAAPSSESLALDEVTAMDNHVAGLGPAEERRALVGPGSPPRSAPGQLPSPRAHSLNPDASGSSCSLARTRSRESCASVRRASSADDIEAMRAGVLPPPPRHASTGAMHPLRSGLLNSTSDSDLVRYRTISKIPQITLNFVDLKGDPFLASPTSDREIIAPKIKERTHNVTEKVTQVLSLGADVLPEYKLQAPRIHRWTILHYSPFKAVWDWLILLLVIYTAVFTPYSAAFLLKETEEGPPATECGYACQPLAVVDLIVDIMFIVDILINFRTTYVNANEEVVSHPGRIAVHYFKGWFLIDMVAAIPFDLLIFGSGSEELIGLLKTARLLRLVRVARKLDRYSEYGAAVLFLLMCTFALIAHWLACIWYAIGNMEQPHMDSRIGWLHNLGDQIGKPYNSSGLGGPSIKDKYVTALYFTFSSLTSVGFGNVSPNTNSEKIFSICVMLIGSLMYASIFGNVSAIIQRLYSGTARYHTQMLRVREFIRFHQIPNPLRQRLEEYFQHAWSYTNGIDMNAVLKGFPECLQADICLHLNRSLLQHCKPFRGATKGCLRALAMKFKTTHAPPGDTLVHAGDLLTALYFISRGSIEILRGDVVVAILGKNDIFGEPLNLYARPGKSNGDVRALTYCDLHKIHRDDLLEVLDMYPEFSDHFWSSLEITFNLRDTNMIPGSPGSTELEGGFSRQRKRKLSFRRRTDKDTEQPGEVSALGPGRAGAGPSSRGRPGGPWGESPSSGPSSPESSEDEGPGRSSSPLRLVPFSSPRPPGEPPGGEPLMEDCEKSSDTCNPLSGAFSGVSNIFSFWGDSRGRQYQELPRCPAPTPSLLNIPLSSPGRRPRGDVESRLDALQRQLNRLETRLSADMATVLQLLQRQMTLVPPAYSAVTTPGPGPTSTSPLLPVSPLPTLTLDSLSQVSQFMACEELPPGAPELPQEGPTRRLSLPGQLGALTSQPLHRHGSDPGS

Structure (SMILES) | hERG current change (%, negative = inhibition) at 1uM
Cc1ccc(C)c(NC(=O)CCC(=O)NNC(=O)COc2cc(C)ccc2C)c1 | 13.9%
COc1ccccc1NC(=O)CSC1=NC(=O)C(NC(C)=O)C(=O)N1 (stereo not shown) | 3.79%
CCOc1ccc(S(=O)(=O)N2CCCCC2)cc1NC(=O)CN1C(=O)NC(C)(C2CC2)C1=O (stereo not shown) | 11.7%
Cc1ccc(-n2nnc(-c3cc4ccccc4n3C)n2)cc1 | 7.06%
COC(CNC(=O)c1ccc(N2CCC3(CC2)OCCO3)c([N+](=O)[O-])c1)OC | 8.12%
O=c1oc(-c2cccs2)nc2sc3c(c12)CCCCC3 | -11.6%
CCc1cccc(CC)c1NC(=O)c1cccc(NC(=O)c2ccccc2)c1 | -7.62%
CC(=O)N/C(=C/c1ccccc1)C(=O)NCCO | 4.61%
O=C(CSc1nc(-c2ccccc2)cc(C(F)(F)F)n1)c1cccc([N+](=O)[O-])c1 | 17.6%
COc1ccc(OC)c(NC2=NCCS2)c1 | 12%
Cc1nc(NC(=O)CCc2ccccc2)sc1C | 13.4%
CN1CCN(C(=O)c2cc(Cl)cc(Cl)c2NC(=O)c2ccco2)CC1 | 11.3%
Cc1ccc(NC(=S)NCC2CCCO2)cc1C (stereo not shown) | -7.46%
O=C(CC1c2ccccc2Oc2ccccc21)Nc1ccccc1F | 9.34%
CCOC(=O)C1Cc2c([nH]c3ccccc23)CN1.Cl (stereo not shown) | 9.08%
CC1=NN(Cc2ccccc2)C(=O)/C1=C\c1ccc(N(C)C)cc1 | 4.66%
Cc1cc(-c2ccc(C)c(S(=O)(=O)NCc3ccc(Br)cc3)c2)on1 | -5.83%
CC(SCC(=O)Nc1ccccc1)c1nc2ccccc2c(=O)[nH]1 (stereo not shown) | 6.91%
Cc1ccc(-n2c(SCC(N)=O)nc3c([nH]c4ccccc43)c2=O)cc1 | 14.9%
CCc1cc(=O)oc2c3c(cc(OCC(=O)NCCCC(=O)O)c12)OC(C)(C)CC3 | 10.5%
O=C(c1cccs1)N1CCN(c2nc3ccccc3s2)CC1 | 7.28%
O=C1CN(C(=O)CSc2nnc(Nc3ccccc3)s2)c2ccccc2N1 | 2.18%

Structure (SMILES) | hERG current change (%, negative = inhibition) at 1uM
CC(C)NCc1cccc([N+](=O)[O-])c1.O=C(O)C(=O)O | 11.8%
O=C(CCN1C(=O)c2ccccc2C1=O)NCCCn1ccnc1 | 11.1%
CCCNC(=O)N1[C@H]2CC[C@@H]1C(C(=O)OC)=C(c1cccc(C#N)c1)C2 | -0.51%
Cc1cccc(C)c1N1CCN(CCn2c(=S)[nH]c3ccccc3c2=O)CC1 | 19.6%
Cl.NS(=O)(=O)c1ccc(CCNCc2cc(Cl)ccc2OCc2ccccc2)cc1 | -59.3%
CCN(Cc1cc2cc(OC)ccc2[nH]c1=O)C(=O)c1ccncc1 | -14.1%
CCCCCc1cc(O)c2c3c(c(=O)oc2c1)CN(C)CC3 | 7.07%
Cc1ccc(NC2CCCN(C(=O)c3ccc(-n4ccnc4)cc3)C2)cc1C (stereo not shown) | -4.71%
C=CCn1c(C2CC2)n[nH]c1=S | 1.66%
O=S(=O)(NC(=NC1CCCCC1)c1ccccc1)c1ccccc1 | 6.41%
Cc1nc(-c2cccc(NS(=O)(=O)c3cccc4ccccc34)c2)cs1 | 13%
Cc1ccc(S(=O)(=O)c2ccc(Cl)cc2)cc1S(=O)(=O)NC(C(=O)O)C(C)C (stereo not shown) | 17.3%
CCc1csc(CCNC(=O)C2CCC(=O)N(CCOC)C2)n1 (stereo not shown) | 14.5%
CCOc1ccc(/C=N/n2c(SC)nnc2-c2ccccc2)cc1OCC | 7.11%
Cc1cc(-c2c(C(=O)N3CCOCC3)c(C)nn2-c2cccc(C(F)(F)F)c2)no1 | 5.32%
CCOCCN1CCN(c2c(C)c(C)nc3cc(-c4cc(OC)cc(OC)c4)nn23)CC1 | -29.4%
O=C(NCCCc1ccccc1)c1ccc(-n2cncn2)c([N+](=O)[O-])c1 | -22.1%
CCCCNC(=S)N1CCN(Cc2ccc3c(c2)OCO3)CC1.O=C(O)C(=O)O | 4.66%
COc1cc(OC)cc(-c2c(-c3cccs3)c3cc(-c4ccc(N(C)C)nc4)ccc3n2C)c1 | 9.24%
O=C(OCC(=O)N1CCC(Cc2ccccc2)CC1)c1ccccc1 | 12.8%
O=C(NNC(=O)c1cc(C(F)(F)F)cc(C(F)(F)F)c1)c1ccc(Cl)cc1 | 7.75%
